Measurements taken from paper PMC4336329 (PLoS ONE, 2015).
In all, about 310,000 compounds went through this assay and about 14,000 (4.5%) showed an effect of 50% or more. The effect is printed as a negative number. The list shows a part of the results.

What follows are compounds tested against human ether-à-go-go-related gene (hERG) potassium channel (human, UniProt Q12809) (assay: primary screen, population patch clamp on CHO cells stably expressing hERG).
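Further: peak tail current of the secondary pulse compared with the same well before compound.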

human ether-à-go-go-related gene (hERG) potassium channel, sequence (Q12809 whole entry, looked up): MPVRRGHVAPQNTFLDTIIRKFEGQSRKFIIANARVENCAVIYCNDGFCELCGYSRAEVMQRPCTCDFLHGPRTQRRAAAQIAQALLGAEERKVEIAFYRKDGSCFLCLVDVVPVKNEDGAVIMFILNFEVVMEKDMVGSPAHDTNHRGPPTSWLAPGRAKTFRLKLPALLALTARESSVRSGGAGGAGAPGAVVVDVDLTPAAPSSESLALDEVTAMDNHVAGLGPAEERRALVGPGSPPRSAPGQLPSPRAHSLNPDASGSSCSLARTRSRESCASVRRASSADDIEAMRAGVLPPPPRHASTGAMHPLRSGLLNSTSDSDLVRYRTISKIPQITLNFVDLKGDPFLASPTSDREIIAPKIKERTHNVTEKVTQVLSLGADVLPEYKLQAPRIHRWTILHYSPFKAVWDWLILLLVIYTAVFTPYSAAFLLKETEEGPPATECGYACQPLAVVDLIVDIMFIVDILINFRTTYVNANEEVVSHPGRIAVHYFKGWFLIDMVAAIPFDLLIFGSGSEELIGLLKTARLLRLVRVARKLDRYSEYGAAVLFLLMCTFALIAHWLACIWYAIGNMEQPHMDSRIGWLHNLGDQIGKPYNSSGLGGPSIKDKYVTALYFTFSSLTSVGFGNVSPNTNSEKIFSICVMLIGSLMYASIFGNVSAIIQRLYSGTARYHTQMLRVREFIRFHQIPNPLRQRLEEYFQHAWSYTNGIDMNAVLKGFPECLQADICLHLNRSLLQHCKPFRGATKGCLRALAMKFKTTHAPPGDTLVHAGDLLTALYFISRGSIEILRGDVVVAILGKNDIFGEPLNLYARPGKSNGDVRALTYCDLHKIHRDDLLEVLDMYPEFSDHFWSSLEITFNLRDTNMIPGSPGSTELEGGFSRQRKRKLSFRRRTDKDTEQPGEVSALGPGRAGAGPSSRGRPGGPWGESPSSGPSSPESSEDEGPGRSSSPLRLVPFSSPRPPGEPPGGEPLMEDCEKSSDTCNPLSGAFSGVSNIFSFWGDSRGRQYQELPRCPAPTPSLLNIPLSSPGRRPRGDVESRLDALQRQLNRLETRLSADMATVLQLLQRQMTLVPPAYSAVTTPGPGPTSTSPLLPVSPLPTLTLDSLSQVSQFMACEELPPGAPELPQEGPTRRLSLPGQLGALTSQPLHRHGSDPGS

Row | Structure (SMILES) | hERG current change (%, negative = inhibition) at 10uM [%]
1 | CCc1n[nH]c(=S)n1/N=C/c1c(O)ccc2ccccc12 | 15.2
2 | CC1(C)c2[nH]c3ccccc3c2C[C@H]2C(=O)N(N)CC(=O)N21.Cl | 19
3 | O=C(c1ccc2c(c1)OCO2)C1CCCN(C(=O)Nc2ccc(F)cc2F)C1 (stereo not shown) | -30
4 | S=C(Nc1cccnc1)Nc1cccc2cnccc12 | 14
5 | COC(=O)Cc1ccc(OC(=O)CCS(=O)(=O)c2ccc(C)cc2)cc1 | 22.2
6 | C[n+]1cccc(O)c1SCc1ccccc1.[Br-] | -8
7 | CCC(C)NC(C(=O)Nc1ccc(Cl)c([N+](=O)[O-])c1)c1ccccc1.O=C(O)C(=O)O (stereo not shown) | -13.2
8 | O=S(=O)(c1ccccc1Cl)N1CCC(Cc2ccccc2)CC1 | 7.47
9 | COc1ccc(OC)c(Cc2nnc(CCC(=O)N3CCCCC3)o2)c1 | 11.4
10 | COc1cc(CC(=O)NCC2COc3ccccc3O2)cc(OC)c1OC (stereo not shown) | 8.63
11 | O=C(NCc1ccc2c(c1)OCO2)C1CCN(S(=O)(=O)c2cccs2)CC1 | -4.43
12 | CC(C)C(=O)NC(c1ccc(Cl)cc1Cl)c1ccc2cccnc2c1O (stereo not shown) | -1.82
13 | NC1=NC(=O)C2(COC(c3ccccc3Cl)OC2)S1 (stereo not shown) | 5.91
14 | [O-][n+]1onc2c3ccnnc3ccc21 | 12.5
15 | C=CCNC(=O)c1ccc(CN2CCC(Cc3ccccc3)CC2)cc1 | -66.8
16 | CC1(C)C(=O)OC(C(=O)c2ccccc2)C(C)(C)C1=O (stereo not shown) | -17
17 | Nc1ccc(SCc2cccnc2)cc1 | 17.4
18 | O=C1c2ccccc2S(=O)(=O)c2cc(N3CCc4ccccc4C3)ccc21 | -10.9
19 | O=Cc1c(NCc2ccc(Cl)cc2)c2ccccc2[nH]c1=O | -9.72
20 | CCOC(=O)c1cnn(CCOC(=O)c2ccc(OC)cc2)c1NC(=O)c1ccc(OC)cc1 | -15
21 | O=c1[nH]c(Cc2ccccc2)nc2scc(-c3ccccc3)c12 | 17.6
22 | CC(=O)Nc1cc(Cl)c(N=Cc2ccc(O)cc2O)cc1Cl | 0.7
23 | O=C(O)C1CCC(=O)N1Cc1ccc(F)cc1 (stereo not shown) | -3.97

Row | Structure (SMILES) | hERG current change (%, negative = inhibition) at 10uM [%]
24 | O=C(NC(=S)Nc1ccc2[nH]ncc2c1)c1ccccc1 | 2.54
25 | CCOc1ncccc1C(=O)N=c1sccn1C | 26.8
26 | N#CCCN(C(=O)COC(=O)C1=COCCO1)c1ccc(F)cc1 | 12.9
27 | CC(=O)Nc1ccc(NC(=O)CCS(=O)(=O)c2ccc3c(c2)oc(=O)n3C)cc1 | 17.7
28 | CC1CCN(S(=O)(=O)c2ccc3c(c2)c(=O)c(C(=O)N2CCOCC2)cn3C)CC1 | 13.5
29 | O=[N+]([O-])c1ccc(O)c(C=Nc2ccc3c(c2)OCO3)c1 | 2.71
30 | O=c1cc(CO)oc(CN2CCC(Cc3ccccc3)CC2)c1O | 11.6
31 | Cc1cc(OC(C)C(=O)Nc2ccncc2)ccc1Cl (stereo not shown) | -27
32 | COC(=O)C/C(O)=C(/N=Nc1cccc(C(F)(F)F)c1)C(=O)OC | 16
33 | c1ccc(-c2cnc(-c3ccccn3)nn2)cc1 | 18.6
34 | CC1CCN(C(=O)c2cc3ccccc3o2)CC1 | -19.1
35 | Cc1ccccc1NC(=S)N1CCCC1 | -6.12
36 | Cc1ccccc1NC(=O)CSc1nc(=O)n(CCN2CCOCC2)c2c1CCCC2 | -18.8
37 | CCOc1ccc(CNc2ccc(N3CCCC3)cc2)cc1 | -4.01
38 | COc1ccc2c(c1)C=Cc1ccccc1O2 | 5.84
39 | CC(=O)Oc1ccc(C(=O)Nc2cccc3c2CCCC3)cc1 | 10.4
40 | CCC(CC)NC(=O)Nc1ccccc1C | 15.3
41 | CCn1ccc(-c2ccccc2)c(C#N)c1=O | -7.46
42 | CCCS(=O)(=O)N1CCN(CCN2C(=O)c3cccc4cccc(c34)C2=O)CC1 | -8.42
43 | CCCn1c2ccccc2c2cc(C(=O)O)ccc21 | 6.24
44 | COC(=O)c1ccccc1NC(=O)c1cc2n(n1)C(C(F)F)CC(C(F)F)N2 (stereo not shown) | 14
45 | O=C(C1CCN(S(=O)(=O)c2ccccc2[N+](=O)[O-])CC1)N1CCOCC1 | 4.39
46 | CN(CC(O)CON=C1c2ccccc2-c2ccccc21)S(=O)(=O)c1ccc(Br)cc1 (stereo not shown) | 11.9
